Counter-ions that a name gives are not always drawn. ± gives the standard deviation of the averaged measurements. Whole data set: some 2,000 compounds, median “cell viability relative to DMSO control (compound alone)” near 0.98, cut for the lowest 2% near 0.23. The list shows a part of the results.

The subject of this experiment is PDC-DUC18828. The experiment can be described thus: cell viability relative to DMSO control (compound alone) (fraction); PDC-DUC18828 is a patient-derived cholangiocarcinoma cell line; higher = less growth inhibition. As to conditions: 1 µM; 72 h. Here is the method:
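Selleck Bioactive library screen in the patient-derived FGFR2-G3BP2 fusion-positive ICC cell line PDC-DUC18828 (500 cells/well). Each compound was tested at 1 uM alone, in triplicate, for 72 h. Viability was read by CellTiter-Glo and normalised to plate DMSO controls.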
As to `C[N+](C)(C)CCCCCCCCCC[N+](C)(C)C` [Decamethonium Bromide], the cell viability was 0.997 ± 0.067.
Under `O=C(O)CNC(=O)c1c(O)c2ccccc2n(Cc2ccccc2)c1=O` stands 1.02 ± 0.047; under `CCCN1C[C@H](CSC)C[C@@H]2c3cccc4[nH]cc(c34)C[C@H]21` [Pergolide mesylate], 0.982 ± 0.04.
Under `CC(=O)Nc1ccc(Cc2ccc(NC(C)=O)cc2)cc1` stands 1.06 ± 0.072.
Under `COc1cc(-n2c(=S)[nH]c3ccccc3c2=O)c(Cl)cc1Cl` [Mdivi-1] stands 0.995 ± 0.022; under `CC1=C(O)C(=O)C=C2C1=CC=C1[C@@]2(C)CC[C@@]2(C)[C@@H]3C[C@](C)(C(=O)O)CC[C@]3(C)CC[C@]12C` [Celastrol], 0.0883 ± 0.016.
`C[C@H]1CCC/C=C/[C@@H]2C[C@H](O)C[C@H]2[C@H](O)/C=C/C(=O)O1` [Brefeldin A]: the cell viability stood at 0.0224 ± 0.00048.
Consider `Cc1cc(O)ccc1Cl` [Chlorocresol], for which the cell viability was 1.01 ± 0.017.
The value for `c1cc2c(cc1[C@H]1OC[C@H]3[C@@H]1CO[C@@H]3c1ccc3c(c1)OCO3)OCO2` [Sesamin] was 0.969 ± 0.055.
As to `NCCc1ccc(S(=O)(=O)F)cc1`, the cell viability stood at 0.974 ± 0.08.
Under `CN1[C@@H]2CC[C@H]1C[C@@H](OC(=O)[C@H](CO)c1ccccc1)C2` [Hyoscyamine] stands 0.93 ± 0.013; under `Nc1nc(N)nc(NC2CC2)n1` [Cyromazine], 1.09 ± 0.043.
Under `Fc1cc(F)c2c(c1)[C@H]1C=CC[C@H]1C(c1cccnc1)N2` (some centres not stated) [Golgicide A] stands 1.06 ± 0.034; under `COC[C@H]1OC(=O)c2coc3c2[C@@]1(C)C1=C(C3=O)[C@@H]2CCC(=O)[C@@]2(C)C[C@H]1OC(C)=O` [Wortmannin], 0.8 ± 0.028.
The value for `C=C[C@H]1CN2CC[C@H]1C[C@H]2[C@H](O)c1ccnc2ccccc12` [Cinchonidine] was 1.02 ± 0.13; that for `Cc1cccc(C(C)c2c[nH]cn2)c1C` (configuration not stated) [Medetomidine HCl] was 0.923 ± 0.085; that for `C=CC[C@]1(O)CC[C@H]2[C@@H]3CCC4=CC(=O)CCC4=C3C=C[C@@]21C` [Altrenogest] was 0.96 ± 0.039.
`C/C(=C\c1csc(C)n1)[C@@H]1C[C@@H]2O[C@]2(C)CCC[C@H](C)[C@H](O)[C@@H](C)C(=O)C(C)(C)[C@@H](O)CC(=O)O1` [Epothilone B (EPO906, Patupilone)] returned a cell viability of 0.265 ± 0.021.
The value for `O=c1[nH]c2ccccc2n1CCCN1CCC(n2c(=O)[nH]c3cc(Cl)ccc32)CC1` [Domperidone] was 0.905 ± 0.043; that for `CN1[C@@H]2CC(O)C[C@H]1[C@@H]1O[C@@H]12` (some centres not stated) [Scopine] was 0.99 ± 0.04; that for `O=S(=O)(CC1CS1)c1ccc(Oc2ccccc2)cc1` (configuration not stated) was 1.02 ± 0.06.
In the case of `CC1(C)CC(O)CC(C)(C)N1[O]` [Tempol], the cell viability turned out to be 1.03 ± 0.048.
The compound `Cn1c(CCCC(=O)O)nc2cc(N(CCCl)CCCl)ccc21` [Bendamustine HCl] registered a cell viability of 0.986 ± 0.069.
`O=C1CC[C@@]2(O)[C@H]3Cc4ccc(O)c5c4[C@@]2(CCN3CC2CC2)[C@H]1O5` [Naltrexone HCl] gave a cell viability of 1.03 ± 0.054.
The value for `CC(C)[C@]12O[C@H]1[C@@H]1O[C@]13[C@]1(O[C@H]1C[C@H]1C4=C(CC[C@@]13C)C(=O)OC4)[C@@H]2O` [Triptolide (PG490)] was 0.238 ± 0.0074; that for `CC(C)(C)c1cc(C=C(C#N)C#N)cc(Br)c1O` was 0.985 ± 0.072; that for `CC(NC(C)(C)C)C(=O)c1cccc(Cl)c1` (configuration not stated) [Amfebutamone HCl] was 0.902 ± 0.019.
Under `CN1[C@@H]2C[C@@H](OC(=O)[C@H](CO)c3ccccc3)C[C@H]1[C@@H]1O[C@@H]12` [Scopolamine HBr] stands 1.05 ± 0.048; under `C/C(=C\c1csc(C)n1)[C@@H]1C[C@@H]2O[C@@H]2CCC[C@H](C)[C@H](O)[C@@H](C)C(=O)C(C)(C)[C@@H](O)CC(=O)O1` [Epothilone A], 0.244 ± 0.018; under `COc1ccc(N(C(=O)Oc2c(C)cccc2C)c2ccnc(Nc3ccc(N4CCN(C)CC4)cc3)n2)c(OC)c1`, 0.992 ± 0.039.
Under `COC1=C[C@@H]2[C@@H]3Cc4ccc(OC)c(O)c4[C@]2(CCN3C)CC1=O` [Sinomenine] stands 0.943 ± 0.057; under `CN(C)CCc1ccc(O)cc1` [Hordenine], 1.06 ± 0.024.
In the case of `N[C@@H]1C[C@H]1c1ccccc1` [Tranylcypromine (2-PCPA) HCl], the cell viability stood at 0.969 ± 0.021.
Under `Cc1sc2c(c1C)C(c1ccc(Cl)cc1)=N[C@@H](CC(N)=O)c1nnc(C)n1-2` stands 0.711 ± 0.022; under `[O-][n+]1ccccc1[S-].[O-][n+]1ccccc1[S-].[Zn+2]` [Zinc Pyrithione], 0.143 ± 0.017; under `C=CCN1CC[C@]23c4c5ccc(O)c4O[C@H]2C(=O)CC[C@@]3(O)[C@H]1C5` [Naloxone HCl], 0.979 ± 0.075.
The value for `C[C@@H]1CC[C@@]2(OC1)O[C@H]1C[C@H]3[C@@H]4CC=C5C[C@@H](O[C@@H]6O[C@H](CO)[C@@H](O[C@@H]7O[C@@H](C)[C@H](O)[C@@H](O)[C@H]7O)[C@H](O)[C@H]6O[C@@H]6O[C@@H](C)[C@H](O)[C@@H](O)[C@H]6O)CC[C@]5(C)[C@H]4CC[C@]3(C)[C@H]1[C@@H]2C` [Dioscin] was 0.648 ± 0.028; that for `Cn1cc(C2=C(c3cn(C4CCN(Cc5ccccn5)CC4)c4ccccc34)C(=O)NC2=O)c2ccccc21` was 0.988 ± 0.054.
Under `Cc1cccc(Cc2c[nH]cn2)c1C` [Detomidine HCl] stands 1.04 ± 0.016; under `Cc1cccc(C)c1NC(=O)CN1CCCC1=O` [Nefiracetam], 1.05 ± 0.043; under `O=c1ccc2cc(O[C@@H]3O[C@H](CO)[C@@H](O)[C@H](O)[C@H]3O)c(O)cc2o1` [Esculin], 1.06 ± 0.023.
For `O=C(O)C(=O)c1cn(Cc2ccccc2)c2ccc(-c3ccc(OC(F)(F)F)cc3)cc12` [Tiplaxtinin (PAI-039)], the cell viability was 1 ± 0.042.
Under `CN1CCCCC1Cn1cc(C(=O)c2cc([N+](=O)[O-])ccc2I)c2ccccc21` (configuration not stated) stands 0.958 ± 0.045.
The value for `c1ccc2c(c1)Nc1ccccc1S2` [Phenothiazine] was 0.958 ± 0.031; that for `CC(=O)O[C@H]1C[C@@H]2CC[C@@H]3[C@H](CC[C@@]4(C)[C@H]3C[C@H]([N+]3(C)CCCCC3)[C@@H]4OC(C)=O)[C@@]2(C)C[C@@H]1[N+]1(C)CCCCC1` [Pancuronium dibromide] was 1.018 ± 0.0059; that for `O=C(NCC1CCOCC1)c1cnc(Nc2ccc(Cl)cc2Cl)nc1C(F)(F)F` was 0.988 ± 0.059.
Consider `C[C@]12CC[C@H](O)CC1=CC[C@@H]1[C@@H]2CC[C@]2(C)C(=O)CC[C@@H]12` [Dehydroepiandrosterone (DHEA)], for which the cell viability was 1.11 ± 0.065.

Source of the values: the supplement of paper PMC9588766.
